Patent publication US20250109212A1 (BIOSION, published 2025)

Target: T1, human CD47-his protein (Cat #: CD7-H5227, Acro biosystems) (human, UniProt Q08722 in part)
T1 construct: Bought protein
Experiment: SPR (Biacore T200), sample on Protein A chip, antigen-his analyte, 1:1 fit

T1 sequence (Q08722 19-139 limits assumed): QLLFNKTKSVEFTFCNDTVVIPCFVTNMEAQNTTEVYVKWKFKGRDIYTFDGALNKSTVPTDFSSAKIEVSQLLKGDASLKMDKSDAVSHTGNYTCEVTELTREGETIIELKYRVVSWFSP

- Kd: 5.52 nM
- koff: 0.00918 s⁻¹
- kon: 1.66e+06 M⁻¹ s⁻¹
B1: SIRPα-isoform2-Fc (Fc fusion)
chain: [about 120 residues not given here]KPSAPVVSGPAARATPQHTVSFTCESHGFSPRDITLKWFKNGNELSDFQTNVDPVGESVSYSIHSTAKVVLTREDVHSQVICEVAHVTLQGDPLRGTANLSETIRVPPTLEVTQQPVRAENQVNVTCQVRKFYPQRLQLTWLENGNVSRTETASTVTENKDGTYNWMSWLLVNVSAHRDDVKLTCQVEHDGQPAVSKSHDLKVSAHPKEQGSNTAAENTGSNER[human IgG1 Fc not given here]
